# Source: article PMC4336329 (PLoS ONE, 2015)
# In all, about 310,000 compounds went through this assay and about 2,200 (0.71%) showed an effect of 50% or more. The effect is printed as a negative number. The list shows a part of the results.
# Molecular target: human ether-à-go-go-related gene (hERG) potassium channel (human, UniProt Q12809)
# Assay: primary screen, population patch clamp on CHO cells stably expressing hERG
# Chain of human ether-à-go-go-related gene (hERG) potassium channel (Q12809 whole entry, looked up): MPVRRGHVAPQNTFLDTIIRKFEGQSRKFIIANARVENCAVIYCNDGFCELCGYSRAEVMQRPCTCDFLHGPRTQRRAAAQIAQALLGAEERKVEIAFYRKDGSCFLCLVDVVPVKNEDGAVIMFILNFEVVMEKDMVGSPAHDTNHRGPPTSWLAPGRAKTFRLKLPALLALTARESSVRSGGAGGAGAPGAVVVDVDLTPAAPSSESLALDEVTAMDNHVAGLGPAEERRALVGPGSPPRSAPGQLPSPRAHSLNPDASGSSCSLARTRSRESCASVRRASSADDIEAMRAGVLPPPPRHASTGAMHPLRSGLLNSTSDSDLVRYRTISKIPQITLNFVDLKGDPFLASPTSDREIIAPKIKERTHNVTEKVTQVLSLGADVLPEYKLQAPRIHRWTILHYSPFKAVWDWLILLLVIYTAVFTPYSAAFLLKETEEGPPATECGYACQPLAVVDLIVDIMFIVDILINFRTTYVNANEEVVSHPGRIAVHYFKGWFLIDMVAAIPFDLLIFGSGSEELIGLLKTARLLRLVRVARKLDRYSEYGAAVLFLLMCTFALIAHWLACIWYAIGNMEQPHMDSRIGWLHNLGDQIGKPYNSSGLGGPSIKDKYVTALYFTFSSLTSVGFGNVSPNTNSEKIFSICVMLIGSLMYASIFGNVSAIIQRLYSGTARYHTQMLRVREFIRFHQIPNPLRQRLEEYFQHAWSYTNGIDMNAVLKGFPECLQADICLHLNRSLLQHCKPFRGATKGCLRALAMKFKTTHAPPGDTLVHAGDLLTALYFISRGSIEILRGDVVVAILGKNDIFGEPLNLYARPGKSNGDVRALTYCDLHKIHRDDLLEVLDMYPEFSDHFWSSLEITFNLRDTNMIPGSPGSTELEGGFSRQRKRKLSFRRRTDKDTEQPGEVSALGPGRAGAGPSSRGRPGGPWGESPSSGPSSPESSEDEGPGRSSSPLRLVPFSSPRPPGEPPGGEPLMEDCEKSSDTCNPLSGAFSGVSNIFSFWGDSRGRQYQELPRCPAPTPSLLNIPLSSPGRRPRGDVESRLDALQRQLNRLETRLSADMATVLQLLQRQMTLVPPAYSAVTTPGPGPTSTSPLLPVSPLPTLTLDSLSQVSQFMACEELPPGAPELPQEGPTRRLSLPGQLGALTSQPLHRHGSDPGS
row,SMILES,"hERG current change (%, negative = inhibition) at 1uM [%]"
1,COc1ccc(CC2(C)OC(c3ccncc3)=NN2C(C)=O)cc1 (centres unmarked),-2.54
2,Cn1c(=O)c2c(ncn2CC(=O)OCC(=O)Nc2cc(Cl)ccc2Cl)n(C)c1=O,6.5
3,Cc1c(C)[n+](=O)c(-c2cccs2)c(C)n1[O-],17.7
4,Cc1cccc(C(=O)NC2CCN(C(=O)N3CCOCC3)CC2)c1,20.7
5,COCON1C(=O)CN(C(C)=O)C1c1ccc(Cl)cc1Cl (centres unmarked),11.7
6,COc1cc(C(=O)N2CCN(C(=O)COc3ccc4ccccc4c3)CC2)cc(OC)c1OC,-54
7,Cc1cc(S(N)(=O)=O)c(N)c(S(N)(=O)=O)c1,3.24
8,O=c1cc(-c2ccco2)oc2c1ccc1ccccc12,13.7
9,CCc1noc(C)c1C(=O)N1CCCSC1=Nc1ccccc1Cl,5.35
10,O=C1/C(=C/c2ccc3c(c2)OCO3)N2CCC1CC2,10.6
11,O=C(c1ccc2c(c1)N(Cc1ccc(F)cc1)CCS2)N1CCOCC1,2.29
12,COCCOC(=O)c1c(C)oc2ccc(OC(=O)c3ccco3)cc12,4.56
13,C(=N\Nc1ccc2nncn2n1)/c1ccco1,13
14,O=C(CSCc1c(Cl)cccc1Cl)NCc1cccnc1,8.81
15,Cc1ccc(-n2ncc3c2CCCC3NC(=O)CCN2CCCC2=O)cc1C (centres unmarked),7.02
16,O=C(CCCN1C(=O)c2ccccc2C1=O)Nc1ccc(S(=O)(=O)N2CCOCC2)cc1,9.6
17,CN(C)CCCOC(=O)N1c2ccccc2C=Cc2ccccc21.Cl,15.9
18,OCCNC(=S)Nc1cccc(Cl)c1Cl,10.1
19,CCCc1cc(=O)[nH]c(SCC(=O)Nc2nc(-c3ccccc3)cs2)n1,14.7
20,O=C(/C=C/c1ccc2ccccc2c1)c1ccoc1,14
21,CC(C)CC(COCc1ccc(F)cc1)N1CCN(C(=O)c2cccc(C(F)(F)F)c2)CCC1=O (centres unmarked),-19.8
22,O=C1CCCC/C1=C/Nc1cccc(C(F)(F)F)c1,16.1
23,Cc1ccc(C(=O)OCC(=O)NCCC2=CCCCC2)s1,14.4

row,SMILES,"hERG current change (%, negative = inhibition) at 1uM [%]"
1,C=CCNC(=O)/C(C#N)=C/c1c(N2CCN(c3ccc(OC)cc3)CC2)nc2c(C)cccn2c1=O,-0.425
2,COc1cccc(NC(=S)NC(=O)Cc2ccccc2)c1,-3.88
3,c1ccc(C[C@H]2CNCCN2CCC23CC4CC(CC(C4)C2)C3)cc1,5.2
4,Cn1cccc1/C=N\NC(=O)C1COc2ccccc2O1 (centres unmarked),13.7
5,COc1ccccc1NC(=O)CCC(=O)Nc1cc(OC)c(NC(=O)c2cccs2)cc1OC,9.82
6,CC(C)CCOC(=O)C1C2C=CC3(CN(Cc4cccs4)C(=O)C13)O2 (centres unmarked),13.8
7,CC12CC[C@H]3[C@@H](CCC4(O)C[C@H](O)CCC34/C=N/NC(=O)c3ccccc3[N+](=O)[O-])C1(O)CCC2C1=CC(=O)OC1 (some centres unmarked),8.81
8,COC(=O)c1[nH]c2cccc(OC)c2c1NC(=O)CCN1CCC(C)CC1,-5.14
9,CCCCCC(=O)Nc1cccc(C2=NOC3(C2)C[C@@H](C(N)=O)N(C(=O)C2(C)CC2)C3)c1 (some centres unmarked),18.5
10,COc1ccccc1Oc1cc(-n2nc(C)cc2C)ncn1,4.77
11,Cc1ccc(OCCSc2nc3ncnc(N)c3[nH]2)cc1,5.82
12,O=C(CCCCCn1c(=S)[nH]c2ccc(N3CCOCC3)cc2c1=O)NCc1ccc2c(c1)OCO2,4.36
13,Cc1ccccc1C(=O)NCC(c1ccco1)N1CCc2ccccc21 (centres unmarked),-7.05
14,Cc1oc(-c2cccs2)nc1CS(=O)CC(=O)NCc1ccc2c(c1)OCO2 (centres unmarked),-1.28
15,COc1cccc(N2CCN(S(=O)(=O)c3ccc(-n4cnnn4)cc3)CC2)c1,15.5
16,CN(c1ccc(OCC(=O)OCC(=O)Nc2ccc(F)cc2)cc1)S(=O)(=O)c1ccc(Cl)cc1,-30.7
17,Cn1c(=O)n(C)c2cc(NC(=O)c3ccccc3NS(C)(=O)=O)ccc21,6.98
18,CSc1cccc(NC(=O)CN(C)S(=O)(=O)c2cnc[nH]2)c1,13.6
19,O=C1CN(C(=O)c2ccc3nc(Cc4cccc(Cl)c4)oc3c2)CCN1,12.3
20,CCC(C)NC(=O)c1ccc(CSCc2cccc(F)c2)o1 (centres unmarked),1.86
21,COc1ccc(C)cc1S(=O)(=O)N1CCN(c2cccc(C(F)(F)F)c2)CC1,12.1
22,CC1Cc2cc(S(=O)(=O)N3CCCCC3C)ccc2N1C(=O)C1CCC1 (centres unmarked),16.1
23,CC(=O)N1CC(=O)Nc2ccc(Cl)cc2C1c1ccccc1 (centres unmarked),14.4

row,SMILES,"hERG current change (%, negative = inhibition) at 1uM [%]"
1,CCCNC(=O)C1(CC2CC(c3ccccc3)=NO2)CCN(C(=O)c2ccccc2)CC1 (centres unmarked),-49.9
2,CCCCCC(=O)NC(NC(=S)Nc1ccc(S(N)(=O)=O)cc1)C(Cl)(Cl)Cl (centres unmarked),16.1
3,COc1ccc2c(C)c(C(=O)O)oc2c1,9.64
4,O=C(O)c1ccc(Sc2nnc(-c3cccc(Br)c3)o2)c([N+](=O)[O-])c1,6.51
5,Cc1ccc(C2C(C#N)=C(N)Oc3c2oc(CO)cc3=O)o1 (centres unmarked),9.74
6,CCOC(=O)C1=C(C)NC(=O)NC1c1ccoc1 (centres unmarked),4.7
7,O=S(=O)(NCc1ccccc1)NCc1cccc(C(F)(F)F)c1,8.71
8,Cc1nc2cc(NS(=O)(=O)c3cccc(F)c3)ccc2s1,9.23
9,CS(=O)(=O)c1ccc2nc(NC(=O)c3ccc(Cn4cc(Br)cn4)o3)sc2c1,15.3
10,COc1ccc(/C=C/C(=O)N(Cc2cccs2)C2CCS(=O)(=O)C2)cc1 (centres unmarked),-4.47
11,CCOC(=O)c1sc(NC(C)=O)nc1C,-12.9
12,COc1ccc2occ(C(=O)c3cccs3)c2c1,7.57
13,Cc1ccnc(OC(C(=O)O)C(OCCc2ccccc2)(c2ccccc2)c2ccccc2)n1 (centres unmarked),16.7
14,O=C(O)C(Oc1ccc2ccccc2c1)c1ccccc1 (centres unmarked),15.3
15,O=C(NCCCN1CCCC1)C1CCN(C(=O)c2cc3sccc3n2Cc2ccc(F)cc2)CC1,-0.0417
16,Br.Cc1nn(CCc2nc(-c3ccco3)cs2)c2[nH]c(=O)cc(C(F)(F)F)c12,7.48
17,NC(=O)CC[C@H](NC(=O)c1ccc(F)cc1)C(=O)OCC(=O)Nc1ccc(N2CCOCC2)cc1,4.87
18,Cc1ccc(S(=O)(=O)CCC(=O)OCc2nnc(-c3ccccc3Br)o2)cc1,-1.52
19,CNC(=O)/C(C#N)=C/c1c(N2CC(C)OC(C)C2)nc2ccccn2c1=O (centres unmarked),7.29
20,CCCCCCCSc1nsc(N)n1,12.3
21,O=C(O)CSC1CC(=O)N(c2ccc(Br)cc2)C1=O (centres unmarked),12.1
22,COc1ccc(C2C(C#N)=C(N)Oc3cc(O)ccc32)cc1OC (centres unmarked),2.86
23,Cc1cc(C)cc(N=c2c([N+](=O)[O-])nn(-c3ccc(Cl)cc3)n2O)c1,20

row,SMILES,"hERG current change (%, negative = inhibition) at 1uM [%]"
1,COc1ccc(-c2cc(C(=O)OCC(=O)c3ccc(C)c([N+](=O)[O-])c3)c3ccccc3n2)cc1,9.69
2,COc1ccc(-n2c(SCC(N)=O)nnc2-c2ccccc2F)cc1,7.28
3,C(=C\c1ccccc1)/C=N/Nc1nc(N2CCCCC2)nc(N2CCCCC2)n1,10.7
4,Cc1nn(-c2cc(N3CCOCC3)ccc2[N+](=O)[O-])c(=O)c2ccccc12,9.19
5,CC(C)(C)C(=O)/C=c1\[nH]c(=O)/c(=C\c2ccc(F)cc2)s1,7.79
6,c1ccc2c(c1)Oc1cccc3cccc-2c13,15.1
7,Cc1c(C(=O)N2CCN(CCc3ccccn3)CC2)oc2ccc(Cl)cc12,-84.6
8,CCN(CC)C(=O)CSc1nc2sc(C)c(C)c2c(=O)[nH]1,2.42
9,COc1cc(/C=N/NC(=O)CCn2c3ccccc3c3ccccc32)ccc1O,9.33
10,Cc1csc(NC(=O)c2sccc2C)n1,16
11,CCN(C(=O)Cn1cc(C(C)=O)c2ccccc21)c1ccccc1,16.5
12,O=C(/C=C/Nc1ccc(Br)cc1F)c1ccco1,5.17
13,Nc1ccccc1C(=O)NNc1c2ccccc2nc2ccccc12,14.1
14,COc1ccc(NC(=O)COC(=O)c2c(F)cccc2Cl)cc1OC,-2.71
15,CCOC(=O)c1ccc2c(c1)C1C=CCC1C(C(=O)O)N2 (centres unmarked),15.7
16,O/N=C/c1cn(-c2ccccc2)nc1-c1cccnc1,-6.72
17,O=C(NCc1ccccn1)c1cc2n(n1)C(C(F)(F)F)CC(c1ccco1)N2 (centres unmarked),7.4
18,COCCNC(=S)N1CCc2cc(OC)c(OC)cc2C1c1cccs1 (centres unmarked),12.3
19,O=C(CSc1ccccc1[N+](=O)[O-])NC1CCS(=O)(=O)C1 (centres unmarked),24.1
20,O=C(NCC1CCCO1)c1cccc(Oc2ccccc2)c1 (centres unmarked),-19.2
